According to PubChem BioAssay AID686978 (National Center for Advancing Translational Sciences (NCATS), 2013):
Values joined by “and” are separate entries in the source; they are usually repeats but may differ in a detail not shown here. Identical values can stand only once. About 64,000 (15%) of roughly 420,000 compounds were called active. Inconclusive means that the source gave no clear call. Such entries were picked first, then a sample of the others. The call rests on the fitted dose curve; in most records, active means well fitted inhibition curve with a large enough effect; inconclusive means small, poorly fitted or top-dose-only effect; inactive means flat fitted curve, though single readings scatter. A potency beside an inconclusive call is a rough fit, not a confirmed value.

Experiment: qHTS for Inhibitors of human tyrosyl-DNA phosphodiesterase 1 (TDP1): qHTS in cells in absence of CPT; further: nearly all actives have a fitted effect of over 55% in size
Conditions: DT40 Tdp1-/- hTDP1 cells, no CPT, ATP luminescence, 48 h; activity change, negative = growth inhibition: at 46.2 µM (top of the series)
Outline: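 Luminescent ATP content (CellTiter-Glo) served as the growth readout. Knockout chicken DT40 cells expressing human TDP1 were exposed to compounds without camptothecin for a minimum 48 hr at 37 °C.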
On the % scale 0 is the no-effect control and ±100 the full control effect; potency means the concentration at half of the fitted maximal effect; tags describe the fitted curve by direction and shape.

| SMILES | Potency | activity change, negative = growth inhibition |
| --- | --- | --- |
| CCCCc1nc2cc(C(=O)NCCc3c(C)n[nH]c3C)ccc2o1 | inactive |  |
| COC(=O)[C@]1(C)N[C@H](c2ccc(-c3ccc(Cl)c(Cl)c3)cc2)[C@@H]2C(=O)N(C)C(=O)[C@@H]21 | active: 16.4 µM |  |
| CC(C)[C@H](NC(=O)c1ccc(Br)cc1)C(=O)NC1CCCCC1 | inactive |  |
| Cc1[nH]cnc1CSCc1ccc(Cl)cc1 | inconclusive: 25.9 µM [inhibitor, single point] |  |
| CCN(C(=O)CSc1ncnc2c1cnn2-c1ccccc1)C1CCS(=O)(=O)C1 (stereo not drawn) | inconclusive: 29.1 µM [inhibitor, single point] |  |
| COc1ccc(CN2CCOc3ccc(C(O)c4cccnc4)cc3C2)c(F)c1 (stereo not drawn) |  | inconclusive: -30.9% [inhibitor] |
| COc1ccc(N(C)C(=O)c2cc3c(s2)-c2ccccc2S(=O)(=O)C3)cc1 | inconclusive: 18.4 µM [inhibitor, single point] |  |
| Cc1cc([N+](=O)[O-])ccc1N=Nc1c(N)[nH]n(-c2ccccc2)c1=O |  | inconclusive: -30.9% [inhibitor] |
| NC(=O)c1c(/N=C/c2cccnc2)sc2c1CCCC2 | inconclusive: 20.6 µM [inhibitor, partial curve] |  |
| Cc1cc(C)cc(NC(=O)CN2C(=O)c3ccccc3Sc3ccc(C(=O)N4CCCC4)cc32)c1 | inconclusive: 23.1 µM [inhibitor, single point] |  |
| COc1ccc(-c2cn(Cc3ccc4c(c3)C(=O)c3ccccc3C4=O)nn2)cc1 | inconclusive: 8.91 µM [inhibitor, partial curve] and inconclusive: 29.1 µM [inhibitor, single point] |  |
| COCCn1c(=O)cnc2cnc(N3CCN(C)CC3)nc21 | inactive |  |
| Cc1ccc(Cn2cc(C(=O)NN)c(=O)c3ccc(F)cc32)cc1 | inactive |  |
| COc1ccc(-n2c(=O)c3c4c(sc3n(CC(=O)NCc3ccco3)c2=O)CCC4)c(OC)c1 | inconclusive: 29.1 µM [inhibitor, single point] |  |
| CCOC(=O)C(C)Oc1cc(Cl)c(C=O)cc1OC (stereo not drawn) | inconclusive: 6.51 µM [inhibitor, partial curve, poor fit] |  |
| Cc1ccc(S(=O)(=O)N2CC3(O)CN(C(=O)OC(C)C)N(C(=O)OC(C)C)CC3(OC(=O)Nc3c(C)noc3C)C2)cc1 (stereo not drawn) | inconclusive: 18.4 µM [inhibitor, single point] |  |
| Cc1ccc(C)c(CN2CCCN(Cc3ccccc3C)S2(=O)=O)c1 | inconclusive: 18.4 µM [inhibitor, single point] |  |
| CCCOc1ccc(F)cc1-c1cc(C(=O)Nc2ccc(OC)cc2OC)[nH]n1 | active: 18.4 µM |  |
